Assay results published in ChEMBL document CHEMBL4888484, “Replenishing the malaria drug discovery pipeline: Screening and hit evaluation of the MMV Hit Generation Library 1 (HGL1) against asexual blood stage Plasmodium falciparum ,using a nano luciferase reporter read-out” (2022).
Screen size: about 150,000 compounds; about 540 (0.36%) showed an effect of 50% or more. Some of the results follow.

What follows are molecules tested on Plasmodium falciparum (assay: Primary screen in NF54 nanoGlo assay, in single point, at 2uM, 72h; a lower Z score goes with more inhibition). Conditions: timepoint 72 hour.
Assay type: functional, Erythrocyte
For `C=CCn1ccnc1-c1cc(C)c(C)o1`, the “% Inhibition” value was 0% and the Z score was -0.02.
For `c1cc(CN2CCC[C@@H]2Cn2cncn2)c2c(c1)OCCO2`, the “% Inhibition” value was -9% and the Z score was 1.1.
With `CCC[C@H](NS(C)(=O)=O)c1ccc(F)cc1F` the “% Inhibition” value was -3% and the Z score was 0.42.
In the case of `CN(CCOC1CCCCO1)C1CCCc2cccnc21` (centres undefined), the “% Inhibition” value is reported as -3% and the Z score is reported as 0.36.
For `CCCn1cc(CN(CC)Cc2ccc3[nH]ccc3c2)cn1`, the “% Inhibition” value was 1% and the Z score was -0.23.
`COc1ccc2c(c1)CN(C(=O)c1ccc(C(F)(F)F)cc1)CC[C@H]1COC(=O)N21` was tested, and the “% Inhibition” value was -13% and the Z score was 2.01.
With `CC(C)n1ncnc1CNc1cc(C(F)(F)F)nc2c(F)cc(Br)cc12` the “% Inhibition” value was -10% and the Z score was 0.93.
With `C[C@@H]1CN(c2ccnc(C3CC3)n2)C[C@H](C)N1CCO` the “% Inhibition” value was -2% and the Z score was 0.23.
`CCn1nc(C)cc1C(=O)N1CC[C@@]2(CCCN(CCCc3ccccc3)C2)C1` was tested, and the “% Inhibition” value was -17% and the Z score was 2.56.
In the case of `CC(C)c1ncsc1C(=O)NC1CCCC1CNS(C)(=O)=O` (centres undefined), the “% Inhibition” value is reported as -6% and the Z score is reported as 0.63.
For `Nc1nccnc1C(=O)NCc1ccc(N2CCNC(=O)C2)cc1`, the “% Inhibition” value was -4% and the Z score was 0.78.
With `C[C@H]1c2ccsc2CCN1C(=O)CN1CCS(=O)(=O)CC1` the “% Inhibition” value was -7% and the Z score was 0.9.
For `CCCc1cc(C(=O)N(Cc2cccnc2)Cc2ccsc2)[nH]n1`, the “% Inhibition” value was -16% and the Z score was 1.7.
In the case of `CC(C)COCC(NC(=O)C(C)NC(=O)c1ccoc1)c1ccco1` (centres undefined), the “% Inhibition” value is reported as -4% and the Z score is reported as 0.79.
For `Cc1cc(C)n(CC(=O)N2c3ccccc3C[C@@H]2C)n1`, the “% Inhibition” value was -6% and the Z score was 1.01.
In the case of `CC1CC(=O)Nc2ccccc2N1C(=O)C1CCCOC1` (centres undefined), the “% Inhibition” value is reported as 33% and the Z score is reported as -3.7.
`CCc1[nH]c2c(CNC(=O)CCn3cnnn3)cc(F)cc2c1C` was tested, and the “% Inhibition” value was -14% and the Z score was 1.37.
`CC(C)c1ncc(C(=O)N2CCO[C@@H](Cc3ccccc3Cl)C2)c(=O)[nH]1` was tested, and the “% Inhibition” value was -3% and the Z score was 0.4.
For `N[C@@H]1c2ccccc2C[C@H]1NS(=O)(=O)N1CCCCC1`, the “% Inhibition” value was -6% and the Z score was 1.06.
In the case of `Cc1nc(C(=O)Nc2ccccc2CN2CCCCC2)cs1`, the “% Inhibition” value is reported as -4% and the Z score is reported as 0.66.
In the case of `O=C(Cc1c[nH]c2ccccc12)N1CCS(=O)(=O)CC1`, the “% Inhibition” value is reported as -11% and the Z score is reported as 2.04.
In the case of `Cc1ccc2oc(-c3nnc(C(=O)NCCCN4CCC[C@H](C)C4)o3)c(C)c2c1`, the “% Inhibition” value is reported as 22% and the Z score is reported as -2.54.
With `CC(C)[C@@H]1N(C(=O)CCc2cncc(F)c2)CC12CCC2` the “% Inhibition” value was -2% and the Z score was 0.32.
For `Cc1nc(OCC(=O)Nc2ccc(F)cc2Cl)c2c(-c3ccccc3)noc2n1`, the “% Inhibition” value was -9% and the Z score was 1.42.
With `COCc1ccc(C(=O)N2C[C@H](C(=O)O)[C@@H](c3ccccc3C)C2)s1` the “% Inhibition” value was 5% and the Z score was -0.91.
For `Cn1cc([C@@H]2CCCN2CC(=O)Nc2cc(C(C)(C)C)no2)cn1`, the “% Inhibition” value was -3% and the Z score was 0.48.
For `CCn1cnc2c(-c3ccccc3)cn(CC(=O)NCc3ccco3)c2c1=O`, the “% Inhibition” value was -9% and the Z score was 1.31.
In the case of `C=C(C)COc1ccccc1C(=O)N[C@H]1C[C@H]2C(=O)NCC(=O)N2C1`, the “% Inhibition” value is reported as -5% and the Z score is reported as 0.79.
`Cc1cc(C(=O)NC2CCCC2)ccc1NCC(=O)N1C(C)CCCC1C` (centres undefined) was tested, and the “% Inhibition” value was -4% and the Z score was 0.51.
For `CN(C)S(=O)(=O)c1cc(NCc2cccc(-c3ccco3)c2)cc(C(=O)N2CCC[C@H](C(N)=O)C2)c1`, the “% Inhibition” value was -26% and the Z score was 3.02.
For `CCn1cc(-c2nc(C(=O)NCc3cccc(F)c3)cs2)c2cccnc21`, the “% Inhibition” value was -8% and the Z score was 1.41.
`COc1cc(C(=O)N2CCN3CCOc4cccc2c43)ccc1OCC(N)=O` was tested, and the “% Inhibition” value was 0% and the Z score was 0.05.
In the case of `CC[C@@H](C(=O)NC(C)(C)C)N1CCn2nc(Cc3ccccc3)cc2C1`, the “% Inhibition” value is reported as -10% and the Z score is reported as 1.
With `O=C(NCc1ccncc1)NC1CCCC1Oc1ccccc1` (centres undefined) the “% Inhibition” value was 0% and the Z score was 0.05.
`CC[C@H](NC(=O)c1cccc(F)c1C)C1CC(O)C1` (some centres undefined) was tested, and the “% Inhibition” value was -7% and the Z score was 0.93.
For `COc1cccc(OC[C@@H](O)CNC(=O)C2CCN(c3nc(C)c4cc5c(cc4n3)CCC5)CC2)c1`, the “% Inhibition” value was 2% and the Z score was -0.37.
In the case of `Cn1cc(C(=O)N[C@H]2CCOC[C@@H]2Oc2cccc(F)c2)cn1`, the “% Inhibition” value is reported as -6% and the Z score is reported as 0.78.
For `CN1CCC([n+]2nn(-c3ccccc3)c([O-])c2C(=O)Nc2ccccc2)CC1`, the “% Inhibition” value was 0% and the Z score was -0.05.
`COc1ncc(CNCc2cncn2CC(C)C)cn1` was tested, and the “% Inhibition” value was -23% and the Z score was 2.43.
With `CCN(CC1CCOCC1)C(=O)Nc1cc(-n2cnnn2)cc(C)c1C` the “% Inhibition” value was 4% and the Z score was -0.68.
`CC[C@H](C)CC(=O)NS(=O)(=O)c1ccc2nc[nH]c(=O)c2c1` was tested, and the “% Inhibition” value was 2% and the Z score was -0.33.
`CCNc1cnc(-c2noc(CC3(C)CC3)n2)cn1` was tested, and the “% Inhibition” value was -8% and the Z score was 1.04.
